Data published in patent US20180371090A1.

Target: human CD3 on Jurkat cells (human) (UniProt P07766)
Test: flow cytometry on Jurkat cells, FITC anti-human IgG secondary

B1: Control Antibody 1, Anti-hCD3_L2K with wild-type human IgG1 heavy chain constant region (antibody, part only; not given: L2K light chain, part only)
heavy: DVQLVQSGAEVKKPGASVKVSCKASGYTFTRYTMHWVRQAPGQGLEWIGYINPSRGYTNYADSVKGRFTITTDKSTSTAYMELSSLRSEDTATYYCARYYDDHYCLDYWGQGTTVTVSS[in this place human IgG1 constant region]
Geom. Mean:FITC-A: 2700
